Assay results: PubChem BioAssay AID1030 (National Center for Advancing Translational Sciences (NCATS), 2008)
In all, about 220,000 compounds went through this assay and about 16,000 (7.3%) were called active. This list was built around the results that the source calls inconclusive (neither active nor inactive); the mix of calls is not that of the screen. Calls come from the whole dose curve; as a rule, active = well fitted inhibition curve with a large enough effect (not every such curve was filed as active); inconclusive = small, poorly fitted or top-dose-only effect, or another doubt; inactive = no such curve, though single readings can be large or run the other way. A potency beside an inconclusive call is a rough fit, not a confirmed value.

Target: Aldehyde dehydrogenase 1A1 (Homo sapiens) (UniProt P00352)
Experiment: qHTS Assay for Inhibitors of Aldehyde Dehydrogenase 1 (ALDH1A1)
Settings: Purified ALDH1A1, NADH fluorescence, propionaldehyde substrate; series mostly up to 75.3 µM
Potency is the fitted concentration of half-maximal effect; tags give direction and shape of the fitted curve.

Chain of UniProt P00352 (P00352 whole entry, looked up): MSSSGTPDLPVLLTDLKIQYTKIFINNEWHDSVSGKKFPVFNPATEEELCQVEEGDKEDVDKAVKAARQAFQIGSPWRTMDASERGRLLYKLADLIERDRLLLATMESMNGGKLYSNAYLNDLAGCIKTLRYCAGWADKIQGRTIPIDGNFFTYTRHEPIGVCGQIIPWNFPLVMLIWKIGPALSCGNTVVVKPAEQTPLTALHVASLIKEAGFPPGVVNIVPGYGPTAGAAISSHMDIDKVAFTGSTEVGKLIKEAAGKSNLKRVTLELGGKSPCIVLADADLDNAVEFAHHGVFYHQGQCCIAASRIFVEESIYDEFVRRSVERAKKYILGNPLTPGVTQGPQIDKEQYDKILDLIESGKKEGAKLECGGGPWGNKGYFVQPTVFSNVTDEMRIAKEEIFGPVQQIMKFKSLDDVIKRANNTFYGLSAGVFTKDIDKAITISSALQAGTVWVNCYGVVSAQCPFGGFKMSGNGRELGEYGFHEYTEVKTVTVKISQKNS

Potency, active:
O=C(C[N+]1(CC#Cc2ccccc2)CCCCC1)c1ccc(Cl)cc1 22.4 µM
Cc1ccc(NC(=O)CN2C(=O)/C(=C3\SC(=S)N(C4CCS(=O)(=O)C4)C3=O)c3ccccc32)cc1 (stereo not given) 1.41 µM

Potency, inconclusive:
CCN1C(=O)C(CC(=O)Nc2ccccc2)N(Cc2ccccn2)C1=S (stereo not given) 39.8 µM [inhibitor, single point]
COc1ccc(-c2cc(C(=O)N/N=C/c3ccc4c(c3)OCO4)c3ccccc3n2)c(OC)c1 35.5 µM [inhibitor, single point]
Cc1ccc2[nH]c(=O)c(C(c3nnnn3Cc3ccccc3)N3CCc4ccccc43)cc2c1 (stereo not given) 14.1 µM [inhibitor, partial curve]
CC(C)=CCC/C(C)=C/CC(C)(C)CNCCN1CCNCC1 39.8 µM [inhibitor, single point]
CCCCOC(=O)C1=C(C)Nc2ncnn2C1c1cccc(OC)c1OC (stereo not given) 39.8 µM [inhibitor, single point]
CCc1ccc(-c2cc(-c3n[nH]c(=S)n3CC)c3ccccc3n2)cc1 39.8 µM [inhibitor, single point]
Cc1ccccc1OCC(O)CN1CCN(C)CC1 (stereo not given) 23.8 µM [inhibitor, single point]
CCOC(=O)CSc1nc2cc(OCC)ccc2cc1C#N 28.2 µM [inhibitor, partial curve]
CCOc1nc(-c2ccc(C)cc2)ccc1-c1noc(-c2cccnc2)n1 4.47 µM [inhibitor, full curve]
CCN(CC)S(=O)(=O)c1ccc(-c2nnc(SCC(C)=O)o2)cc1 22.4 µM [inhibitor, single point]
O=C(CN1CCN(c2ccccc2)CC1)Nc1ccc(OCc2ccccc2)cc1 25.1 µM [inhibitor, single point]

Potency, inactive:
COc1ccc(-c2cc(C(=O)OCC(=O)c3ccc(C)c([N+](=O)[O-])c3)c3ccccc3n2)cc1
CCN(CC)CCCN1C(=O)CSC1c1ccc([N+](=O)[O-])cc1 (stereo not given)
O=C(C1=C(O)C(=O)N(Cc2cccnc2)C1c1ccccn1)c1cccs1 (stereo not given)
COc1ccc(NCC(=O)N2CCCC2)cc1Cl
O=C(O)CNc1nc(Cl)ccc1[N+](=O)[O-]
Cc1ccccc1N(CC(=O)NCc1ccncc1)S(C)(=O)=O
CCn1cc(C(=O)N2CCN(c3ccccc3F)CC2)c(=O)c2ccc(C)nc21
